Results from PubChem BioAssay AID504374 (National Center for Advancing Translational Sciences (NCATS), 2011).
In all, about 1,500 compounds went through this assay and about 100 (6.7%) were called active. Roughly 7% stayed inconclusive and do not appear here. Calls come from the whole dose curve; as a rule, active = well fitted inhibition curve with a large enough effect; inconclusive = small, poorly fitted or top-dose-only effect, or effect the other way; inactive = flat fitted curve, though single readings scatter. The list shows a part of the results.

These compounds were tested against Runt-related transcription factor 1 (Homo sapiens) + Core-binding factor subunit beta (Homo sapiens) (UniProt Q01196+Q13951) (assay: qHTS Assay for Compounds Blocking the Interaction Between CBF-beta and RUNX1 for the Treatment of Acute Myeloid Leukemia: Hit Validation). Settings: AlphaScreen CBFb-His/RUNX1-biotin binding; series mostly up to 59.8 µM; activity, negative = inhibition: at the top concentration.
Method in brief: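 AlphaScreen proximity assay: His-tagged CBF-beta and biotinylated RUNX1 (30 nM each) preincubated 20 min, then compound 15 min, then nickel and streptavidin beads 90 min, all at room temperature; signal read at […]em 440 nm.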
% is set by controls: 0 for no effect and ±100 for the full control effect; potency is the fitted concentration of half-maximal effect.
Note: nearly all actives have a fitted effect of over 60% in size.

Sequence of UniProt Q01196 (Q01196 whole entry, looked up): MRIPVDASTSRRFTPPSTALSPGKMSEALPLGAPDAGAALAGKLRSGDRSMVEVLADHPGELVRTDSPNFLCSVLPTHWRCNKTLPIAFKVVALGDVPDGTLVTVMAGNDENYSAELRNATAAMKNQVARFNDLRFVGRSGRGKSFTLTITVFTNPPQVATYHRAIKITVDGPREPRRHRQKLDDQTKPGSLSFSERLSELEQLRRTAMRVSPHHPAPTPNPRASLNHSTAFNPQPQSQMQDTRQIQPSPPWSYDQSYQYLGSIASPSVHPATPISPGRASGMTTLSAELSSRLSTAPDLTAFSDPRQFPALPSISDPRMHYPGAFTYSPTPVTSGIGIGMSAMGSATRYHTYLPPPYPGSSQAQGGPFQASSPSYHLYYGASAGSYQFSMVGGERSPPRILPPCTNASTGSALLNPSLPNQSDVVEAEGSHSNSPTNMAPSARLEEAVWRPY
Sequence of UniProt Q01196 (Q13951 whole entry, looked up): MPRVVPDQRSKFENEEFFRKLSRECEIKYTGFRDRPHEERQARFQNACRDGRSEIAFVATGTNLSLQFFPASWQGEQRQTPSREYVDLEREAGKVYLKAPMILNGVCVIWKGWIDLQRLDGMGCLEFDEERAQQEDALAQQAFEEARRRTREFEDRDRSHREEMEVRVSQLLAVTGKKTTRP

SMILES	activity, negative = inhibition	Potency
CC1c2ccsc2CCN1S(=O)(=O)c1cccs1 (stereo not given)	inactive: -8.48%	
CC(=O)Nc1ccc(NS(=O)(=O)c2ccc(C)cc2)cc1[N+](=O)[O-]	inactive: -7.42%	
NC1=NC(=Nc2ccc(S(N)(=O)=O)cc2)c2ccccc21	inactive: -0.969%	
CCCOc1ccc(C(=O)c2ccccc2C(=O)O)cc1OCCC	inactive: -3.16%	
CCN1CCN(S(=O)(=O)c2cc(C(=O)O)ccc2Cl)CC1	inactive: -3.71%	
Oc1ccc(NC(=S)Nc2ccccc2)cc1	inactive: -3.44%	
COC(=O)[C@H](CC(C)C)NC(=O)N1CCCCC1C (stereo not given in full)	inactive: -2.71%	
COc1ccc(-c2c(NC(=O)c3ccco3)n(-c3ccccc3)nc(C)c2=O)cc1	inactive: 1.47%	
NNC(=O)c1ccc(COc2ccc([N+](=O)[O-])cc2)o1	inactive: -7.53%	
CC(C)c1ccc(Nc2c([N+](=O)[O-])c(=O)n(C)c3ccccc23)cc1	inactive: -15.4%	
CC(=O)c1ccc(-n2ccnc2)cc1	inactive: -2.62%	
O=S(=O)(c1ccc(Cl)cc1)N1CCCN(c2ccc(C(F)(F)F)cn2)CC1	inactive: -0.843%	
Cc1cc(C)n2cnnc2n1	inactive: -3.07%	
C/C(=N\Nc1ccc(C#N)cc1[N+](=O)[O-])c1ccc(O)cc1	inactive: -17.7%	
COC(=O)c1ccc(/C=N/NC(=O)C(=O)NCC2CCCO2)cc1 (stereo not given)	inactive: 7.62%	
Clc1ccccc1-c1nnc2n1CCCCC2	inactive: -0.332%	
FC(F)(F)c1cccc(-n2c(Cn3nnc4ccccc43)n[nH]c2=S)c1	inactive: 7.14%	
COc1ccc(/C=N/NC(=O)c2ccc(Br)cc2)cc1CN1CCOCC1	inactive: 3.41%	
COc1ccc(/C=N/NC(=O)Cn2ccnc2C)cc1OC	inactive: -9.74%	
Cn1c(SCC(=O)NC(=O)Nc2ccccc2)nnc1-c1ccncc1	inactive: -3.55%	

SMILES	activity, negative = inhibition	Potency
Cc1nn(C)c(Sc2ccccn2)c1[N+](=O)[O-]	inactive: 3.06%	
O=c1ccn(CCCBr)c(=O)[nH]1	inactive: 3.17%	
CN(C)NC(=S)NC1CCS(=O)(=O)C1 (stereo not given)	inactive: 1.34%	
CCCc1ccc(OCc2ccccc2)c2c(=O)cc(C(=O)OCC)oc12	inactive: -0.456%	
CCCN(c1ccc(C)cc1)c1nc(=O)c2cccnc2s1	inactive: -0.704%	
Cc1cc(NC(=O)CSc2nc3ccccc3[nH]2)n(-c2ccccc2)n1	inactive: -1.36%	
Cc1oc(S(=O)(=O)N2CCCCC2)cc1NC(=O)Nc1ccc(F)cc1	inactive: -4.08%	
Cc1onc(-c2ccccc2)c1C(=O)NNC(=S)NC(=O)c1ccc2c(c1)OCO2	inactive: -5.8%	
CC(C)(C)C(=O)Nc1nc(NC(=O)C(C)(C)C)nc(-c2ccccc2Cl)n1	inactive: 7.81%	
O=C(O)CCC1(c2ccccc2)NC(=O)NC1=O (stereo not given)	inactive: -3.65%	
COC(=O)CC1C(=O)NCCN1C(=S)Nc1ccc(F)cc1 (stereo not given)	inactive: 0.286%	
CC(C)CCNc1nc(N)c([N+](=O)[O-])c(NCCO)n1	inactive: -8.74%	
CCCC1C2C(=O)N(c3cccc(C)c3)C(=O)C2ON1c1ccccc1 (stereo not given)	inactive: -0.96%	
COc1ccccc1N1C(=O)CC(Sc2ccccc2N)C1=O (stereo not given)	inactive: 0.805%	
Cc1cccc(-c2n[nH]c(=S)n2/N=C/c2ccco2)c1	inactive: -6.05%	
COc1ccccc1NC(=S)NCC1CCC(CNC(=S)Nc2ccccc2OC)CC1 (stereo not given)	inactive: -2.72%	
Cc1cnc(NS(=O)(=O)c2ccccc2)c(Br)c1	inactive: -4.09%	
Cc1cc(O)c(C(C)C)cc1N=Cc1ccccc1O	inactive: -0.406%	
Cc1ccccc1C1NC(c2ccccc2C)C([N+](=O)[O-])C(C)(C)C1[N+](=O)[O-] (stereo not given)	inactive: -6.05%	
COC(=O)c1sccc1NC(=S)Nc1ccc(C)cc1	inactive: 5.69%	

SMILES	activity, negative = inhibition	Potency
CC(C)OP(=O)(c1ccc(N(C)C)cc1)C(O)c1cccnc1 (stereo not given)	inactive: -12.8%	
CSCCC(NS(=O)(=O)/C=C/c1ccccc1)C(=O)NCCc1ccc(S(N)(=O)=O)cc1 (stereo not given)	inactive: -23.3%	
Cn1c(=O)c([N+](=O)[O-])c(NCC2CCCO2)c2ccccc21 (stereo not given)	inactive: -0.834%	
CCCN(CCC)c1ccc(/C=C/c2ccc3cc(OCC)ccc3n2)cc1	inactive: 3.7%	
N#Cc1c(Cl)cccc1N1CCC(C(N)=O)CC1	inactive: -17.5%	
CC1Cc2cc(/C=C3/SC(=S)N(C)C3=O)ccc2O1 (stereo not given)	inactive: -8.24%	
Cc1sc(NC(=O)CN2CCOCC2)c(C#N)c1C	inactive: -16%	
CC(C)CC(=O)NC(=S)Nc1ccc(CN2CCOCC2)cc1	inactive: 5.97%	
Cc1ccc(N2CC(c3nc4ccccc4n3C)CC2=O)cc1 (stereo not given)	inactive: 0.961%	
COc1ccc(Oc2ncccc2[N+](=O)[O-])cc1	inactive: -4.02%	
COC(=O)c1ccc(OC)c(OC)c1Cl	inactive: -1.98%	
C=CCn1c(-c2sc3nc(C)cc(C)c3c2N)n[nH]c1=S	inactive: -14.4%	
CCOC(=O)c1cnc2c(F)ccc(F)c2c1Sc1ccccc1	inactive: -4.51%	
c1ccc(CSc2nc3ncncc3[nH]2)cc1	inactive: -2.45%	
O=C(/C=C/c1cn(CC(O)CN2CCOCC2)c2ccccc12)c1cccs1 (stereo not given)	inactive: 2.26%	
Cc1c([N+](=O)[O-])c(C/C=N/O)nn1C	inactive: -8.45%	
COc1cc(/C=N\NC(=O)CNC(=O)C(c2ccccc2)c2ccccc2)ccc1O	inactive: 1.14%	
N#CC(C#N)=Cc1ccc(OC(=O)c2ccccn2)cc1		active: 6.12 µM
CCOC(=O)COc1ccc2c(=O)cc(-c3ccccc3)oc2c1	inactive: -2.66%	
O=C(CCl)NC1(C(F)(F)F)C(=O)Nc2c1c(=O)[nH]c(=O)n2-c1ccccc1 (stereo not given)	inactive: -1.75%	
